# Some of the results follow.
# What was measured:
# Assay in all cases: glycan array binding signal (z-score within array); higher = stronger binding
# Details in all cases: glycan notation: IUPAC condensed, linker removed
# Gal(b1-4)GlcNAc6P = biological target: Gal(b1-4)GlcNAc6P
# How it was run: (§1)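 Glycan array data came from 3228 arrays in the Consortium for Functional Glycomics database, and only arrays with an available protein sequence were kept. Glycan names were put into IUPAC-condensed notation, and columns mapping to the same glycan were averaged. The binding signal is a within-array Z-score, averaged across arrays of one protein sequence run at different concentrations or buffers and across linkers. A negative Z-score can be read as non-binding.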
# Gal(b1-6)Gal = biological target: Gal(b1-6)Gal
# How it was run: as §1
# Gal3S(b1-3)GalNAc = biological target: Gal3S(b1-3)GalNAc
# How it was run: as §1
# Gal3S(b1-3)GlcNAc = biological target: Gal3S(b1-3)GlcNAc
# How it was run: as §1
# [1] = biological target: Gal3S(b1-3)[Fuc(a1-4)]GlcNAc
# How it was run: as §1
# Gal3S(b1-4)Glc = biological target: Gal3S(b1-4)Glc
# How it was run: as §1
# Gal3S(b1-4)Glc6S = biological target: Gal3S(b1-4)Glc6S
# How it was run: as §1
# Gal3S(b1-4)GlcNAc = biological target: Gal3S(b1-4)GlcNAc
# How it was run: as §1
# [2] = biological target: Gal3S(b1-4)[Fuc(a1-3)]Glc6S
# How it was run: as §1
# [3] = biological target: Gal3S(b1-4)[Fuc(a1-3)]GlcNAc
# How it was run: as §1
# [4] = biological target: Gal3S(b1-4)[Fuc(a1-3)]GlcNAc6S
# How it was run: as §1
# Gal3S4S(b1-4)GlcNAc = biological target: Gal3S4S(b1-4)GlcNAc
# How it was run: as §1
# Gal3S6S(b1-4)GlcNAc = biological target: Gal3S6S(b1-4)GlcNAc
# How it was run: as §1
# Gal3S6S(b1-4)GlcNAc6S = biological target: Gal3S6S(b1-4)GlcNAc6S
# How it was run: as §1
# Gal4S(b1-4)GlcNAc = biological target: Gal4S(b1-4)GlcNAc
# How it was run: as §1
# Gal4S6S(b1-4)GlcNAc = biological target: Gal4S6S(b1-4)GlcNAc
# How it was run: as §1
# Gal6P(b1-4)GlcNAc = biological target: Gal6P(b1-4)GlcNAc
# How it was run: as §1
# Gal6S(b1-3)GlcNAc = biological target: Gal6S(b1-3)GlcNAc
# How it was run: as §1
# Gal6S(b1-3)GlcNAc6S = biological target: Gal6S(b1-3)GlcNAc6S
# How it was run: as §1
binder,measurement,setting,value
"DC-Sign (Homo sapiens), Q9NNX6 (protein) MSDSKEPRLQQLGLLEEEQLRGLGFRQTRGYKSLAGCLGHGPLVLQLLSFTLLAGLLVQVSKVPSSISQEQSRQDAIYQNLTQLKAAVGELSEKSKLQEIYQELTQLKAAVGELPEKSKLQEIYQELTRLKAAVGELPEKSKLQEIYQELTWLKAAVGELPEKSKMQEIYQELTRLKAAVGELPEKSKQQEIYQELTRLKAAVGELPEKSKQQEIYQELTRLKAAVGELPEKSKQQEIYQELTQLKAAVERLCHPCPWEWTFFQGNCYFMSNSQRNWHDSITACKEVGAQLVVIKSAEEQNFLQLQSSRSNRFTWMGLSDLNQEGTWQWVDGSPLLPSFKQYWNRGEPNNVGEEDCAEFSGNGWNDDKCNLAKFWICKKSAASCSRDEEQFLSPAPATPNPPPA",glycan array binding signal (z-score),Gal(b1-4)GlcNAc6P,-0.197
same,glycan array binding signal (z-score),Gal(b1-6)Gal,-0.178
same,glycan array binding signal (z-score),Gal3S(b1-3)GalNAc,-0.168
same,glycan array binding signal (z-score),Gal3S(b1-3)GlcNAc,-0.136
same,glycan array binding signal (z-score),[1],0.246
same,glycan array binding signal (z-score),Gal3S(b1-4)Glc,-0.167
same,glycan array binding signal (z-score),Gal3S(b1-4)Glc6S,-0.138
same,glycan array binding signal (z-score),Gal3S(b1-4)GlcNAc,-0.17
same,glycan array binding signal (z-score),[2],-0.175
same,glycan array binding signal (z-score),[3],-0.116
same,glycan array binding signal (z-score),[4],-0.178
same,glycan array binding signal (z-score),Gal3S4S(b1-4)GlcNAc,-0.195
same,glycan array binding signal (z-score),Gal3S6S(b1-4)GlcNAc,-0.125
same,glycan array binding signal (z-score),Gal3S6S(b1-4)GlcNAc6S,-0.135
same,glycan array binding signal (z-score),Gal4S(b1-4)GlcNAc,-0.198
same,glycan array binding signal (z-score),Gal4S6S(b1-4)GlcNAc,-0.149
same,glycan array binding signal (z-score),Gal6P(b1-4)GlcNAc,-0.209
same,glycan array binding signal (z-score),Gal6S(b1-3)GlcNAc,-0.139
same,glycan array binding signal (z-score),Gal6S(b1-3)GlcNAc6S,-0.128
